For part of these data: At least one read-out could not be matched to a standard name with certainty. For part of these data: At least one structure is not confirmed: it was looked up by name or label, or the drawing left a doubt.
How the values were obtained:
[1] = test system: HeLa Lysate; assay: Cap competition assay in kinetic cell free in vitro translation (free cap analogs); type: biochemical; details: free cap analog 0-100 uM against Cap1-tipped eGFP modRNA, fluorescence plateau
Protocol: (§1) The in vitro translation assay was conducted with the HeLa 1-step coupled IVT kit (ThermoFisher Scientific, Waltham, Mass.) according to the manufacturer's instructions to assess performance of new cap analogs as free compounds or as an integral part of capped mRNA. Cap analogs with affinity to eIF4E protein may reduce protein synthesis rate in cell-free translation. Further, RNAs containing such cap analogs (“Cap-modRNA”) show different potency of protein synthesis in cell-free translation.
For competition assays, the total volume of the cell-free translation reaction was increased to 27.8 uL by addition of either water or diluted free CAP analogs in water. The stock concentration of the free CAP analogs was 1 mM. With two-fold dilutions in water, the concentration was reduced sequentially. […] The CAP analogs used in this study were either commercial products serving as reference material (TriLink, San Diego, Calif.) or compounds disclosed herein. It is hypothesized that the small molecule cap analogs interfere with the assembly of the “closed loop” in a Kd-dependent fashion. […]

[2] = test system: HeLa Lysate; assay: Cell free translation assay, mCitrine mRNA carrying the cap analogs; type: biochemical; details: 5-methoxy uridine modRNA
Protocol: as §1
The modified RNAs (“modRNAs”) of eGFP and mCitrine-degron, harboring chemical modifications on either the CAP structures, selected ribose units and/or the bases, were diluted in sterile nuclease-free water to a final amount of 500 ng in 5 uL. […] The in vitro translation reaction was done in a standard 96-well round bottom plate (Corning, Corning, N.Y.), covered with an self-adhesive fluorescence-compatible seal (BioRad, Hercules, Calif.) at 30° C. inside the plate reader Cytation 3 (BioTek, Winooski, Vt.).
The fluorescent signal per reaction increased over time and is considered proportional to the occurring protein synthesis. Each cell-free translation reaction was monitored for 120-180 min with the following settings: eGFP protein—ex. […] The height of the reading head was set to 1 mm above the plate and a reading speed of one per sample every 17 seconds. […]

[3] = test system: HeLa Lysate; assay: Cell free translation assay, hEPO mRNA carrying the cap analogs; type: biochemical; details: 5-methoxy uridine modRNA
Protocol: In FIG. 5A, “mod mRNA” refers to a modified mRNA comprising N1-methyl pseudouridine, which replaces each uridine in the RNA sequence. FIG. 5 B presents the results of a cell free translation assay using mRNAs carrying different cap analogs, normalized to capping and concentration of each capped mRNA (see also Table 13).
as §1
Cell free translation assays were also conducted using modRNAs comprises 5-methoxy uridine, which replaces each uridine in the RNA sequence, except otherwise specified. The results are shown in FIGS. 5A-5B and 6A-6B, and Tables 12 and 13. Table 12 discloses the measured mCitrine levels after 3 hours of a cell-free translation assay.
Table 13 discloses the hEPO levels after 3 hours of a cell-free translation assay.

[4] = test system: human primary hepatocytes; assay: Cell-based expression in human primary hepatocytes of mRNAs carrying the cap analogs; details: mRNA carrying the cap, 5-methoxy uridine; 008-7 Cap0-like, all other caps Cap1-like
[5] = test system: CD-1 mice; assay: In vivo expression assay, hEPO mRNA in MC3-based LNP; details: iv bolus 0.05 mg/kg, 6 h after injection, 008-7 Cap0-like, others Cap1-like
Protocol: mRNAs encoding hEPO were synthesized according to the method described in Example 2 above, co-transcriptionally incorporating cap analogs of the disclosure. […] A MC3-based lipid nanoparticle (LNP) formulation of the synthesized mRNA was produced, and was intravenously administered to CD-1 mice (n=3) at a bolus dose of 0.05 mg/kg. The level of hEPO was tested at 6 h, 24 h, or 48 h after injection.

[6] = biological target: eIF4E (Homo sapiens, UniProt P06730); assay: Binding affinities to eIF4E using surface plasmon resonance (SPR)
eIF4E, sequence (P06730 32-217): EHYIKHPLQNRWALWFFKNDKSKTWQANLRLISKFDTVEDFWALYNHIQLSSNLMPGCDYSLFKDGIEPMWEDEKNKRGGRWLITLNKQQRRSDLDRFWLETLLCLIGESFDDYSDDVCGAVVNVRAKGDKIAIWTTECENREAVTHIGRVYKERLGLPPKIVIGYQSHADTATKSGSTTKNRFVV

[7] = residence time as listed in Table 12
[8] = residence time as listed in Table 13

Structure (SMILES)	IC50 [1]	Ave norm (mCitrine levels after 3 hours of a cell-free translation assay) [2]	CFT (norm to conc. & capping & cap1), hEPO levels after 3 hours of a cell-free translation assay [3]	h-primHeps norm to Capping and Cap1 [4]	in vivo hEPO normalized to capping and Cap1 [5]	τ [6, 7]	τ [6, 8]	in vivo hEPO normalized to capping and Cap1 ([5]; 0.05 mg/kg)
C[C@@]1(O)[C@H](O)[C@@H](COP(=O)(O)OP(=O)(O)OP(=O)(O)OC[C@H]2O[C@@H](n3cnc4c(=O)[nH]c(N)nc43)[C@H](O)[C@@H]2O)O[C@H]1n1c[n+](CCOc2ccc(Cl)cc2)c2c(=O)[nH]c(N)nc21 [Compound 007-37]	6 µM	1.00	2.01	0.88	0.95	17.5 s	17.5 s	–
Nc1nc2c(ncn2[C@@H]2O[C@H](COP(=O)(O)OP(=O)(O)OP(=O)(O)OC[C@@H]3CN(Cc4ccccc4)C[C@H](n4c[n+](CCOc5ccc(Cl)cc5)c5c(=O)[nH]c(N)nc54)O3)[C@@H](O)[C@H]2O)c(=O)[nH]1 [Compound 006-29]	–	0.93	2.03	0.99	1.27	24.4 s	24.4 s	–
C[n+]1cn([C@@H]2O[C@H](COP(=O)([O-])OP(=O)([O-])OP(=O)(O)OC[C@H]3O[C@@H](n4c[n+](C)c5c(=O)[nH]c(N)nc54)[C@H](O)[C@@H]3O)[C@@H](O)[C@H]2O)c2nc(N)[nH]c(=O)c21 [Compound 005-10]	–	–	–	0.86	0.94	–	–	–
CO[C@@H]1[C@H](O)[C@@H](COP(=O)(O)OP(=O)([S-])OP(=O)(O)OC[C@H]2O[C@@H](n3cnc4c(=O)[nH]c(N)nc43)[C@H](O)[C@@H]2O)O[C@H]1n1c[n+](C)c2c(=O)[nH]c(N)nc21 (single isomer, unassigned) [Compound 005-30 (D1)]	–	–	–	1.41 (D1)	–	–	–	1.76
CN1CC(COP(=O)(O)OP(=O)([O-])OP(=O)(O)OC[C@H]2O[C@@H](n3cnc4c(=O)[nH]c(N)nc43)[C@H](O)[C@@H]2O)OC(n2c[n+](CCOc3ccc(Cl)cc3)c3c(=O)[nH]c(N)nc32)C1 (stereo partly drawn) [Compound 006-45]	–	–	–	0.60	0.44	–	–	–
COCCO[C@@H]1[C@H](O)[C@@H](COP(=O)(O)OP(=O)([S-])OP(=O)(O)OC[C@H]2O[C@@H](n3cnc4c(=O)[nH]c(N)nc43)[C@H](O)[C@@H]2O)O[C@H]1n1c[n+](CCOc2ccc(Cl)cc2)c2c(=O)[nH]c(N)nc21 (stereo partly drawn) [Compound 005-34]	–	–	–	1.29	1.05	–	–	–
CO[C@@H]1[C@H](O)[C@@H](COP(=O)(O)OP(=O)([S-])OP(=O)(O)OC[C@H]2O[C@@H](n3cnc4c(=O)[nH]c(N)nc43)[C@H](O)[C@@H]2O)O[C@H]1n1c[n+](C)c2c(=O)[nH]c(N)nc21 (single isomer, unassigned) [Compound 005-30 (D2)]	–	–	–	1.48 (D2)	–	–	–	1.52
Nc1nc2c(ncn2[C@@H]2O[C@H](COP(=O)(O)OP(=O)([O-])OP(=O)(O)OC[C@H]3O[C@@H](n4c[n+](CCOc5ccc(Cl)cc5)c5c(=O)[nH]c(N)nc54)[C@@H](O)[C@@H]3O)[C@@H](O)[C@H]2O)c(=O)[nH]1 [Compound 005-35]	–	–	–	0.77	0.59	–	–	–
COCCO[C@@H]1[C@H](O)[C@@H](COP(=O)(O)OP(=O)([O-])OP(=O)(O)OC[C@H]2O[C@@H](n3cnc4c(=O)[nH]c(N)nc43)[C@H](O)[C@@H]2O)O[C@H]1n1c[n+](CCOc2ccc(Cl)cc2)c2c(=O)[nH]c(N)nc21 [Compound 005-27]	–	–	–	1.22	0.33	–	–	–

Source: patent US20190225644A1, “MRNA CAP ANALOGS AND METHODS OF MRNA CAPPING” (ModernaTX, Inc., priority 2015, published 2019)
